From PubChem BioAssay AID256 (DTP/NCI, 2004)
Inconclusive results and toxic doses are left out. The calls were made as follows: active = survival T/C of 150% or more; inactive = T/C below 125% in these data.

System: CD2F1 mice, L1210 leukemia ip, survival T/C
Experiment: NCI In Vivo Anticancer Drug Screen. Data for tumor model L1210 Leukemia (intraperitoneal) in CD2F1 (CDF1) mice
Conditions: endpoint: mean survival time, schedule: Q04DX002 (ip), vehicle: saline with Tween-80, higher = longer survival
Procedure, shortened: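 Ratio T/C, where T is the treated-group value and C the vehicle-dosed control value, from mice implanted with a transplantable tumor.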

Measured: T/C

O=C(/C=C/c1ccccc1)Nc1ccc(Cl)cc1
inactive: dose: 100.0 mg/kg/injection 98 % of control | dose: 200.0 mg/kg/injection 98 % of control | dose: 400.0 mg/kg/injection 110 % of control
